The full ranking holds about 33,000 sequences; the median of “E-score (-0.5 to 0.5)” is about -0.016, and the highest 2% start at about 0.31. This is one part of the list.
biological target: Cst6 (UniProt P40535); assay: PBM E-score (8-mer binding enrichment) (E-score (-0.5 to 0.5)); higher = stronger / more preferred TF binding; most listed sequences are background and not binding sites; conditions: protein concentration: 200 nM; construct: GST-DNA-binding domain
Outline: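 Using PURExpress in vitro transcription/translation, GST-tagged yeast transcription factors were made in full-length or DNA-binding-domain form. These were applied at about 100-200 nM to double-stranded universal all-10-mer Agilent arrays, and bound protein was detected with fluorescent anti-GST. Scans were normalised with masliner before the Universal PBM Analysis Suite assigned E-scores to ungapped eight-base words pooled with their reverse complements.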

Row | Sequence | PBM E-score
1 | ATGGAACA | -0.153
2 | AGGGAAAC | -0.148
3 | CCTATGGC | -0.219
4 | AAACGGTC | 0.0592
5 | AGAATGGG | -0.159
6 | GGCCGAAA | 0.0221
7 | CTCCTTGC | -0.172
8 | AACGAAGA | 0.0604
9 | AAGATCGG | -0.154
10 | GCGGTAAC | 0.0406
11 | AAAACGTG | 0.0168
12 | GCCGCGCA | 0.226
13 | ACTCAGGA | 0.0346
14 | ATGCCGAG | -0.0097
15 | CCGGCTCA | -0.0972
16 | TGGTTACA | 0.0864
17 | ATACCTTC | -0.0872
18 | ACCAGAAG | 0.0353
19 | ACAGACTA | 0.00847
20 | GTAAATTA | 0.202
21 | CAGGCCGC | -0.119
22 | ACCTTCAG | -0.0786
23 | ATTCCAAT | 0.152
24 | AAGGCGCG | 0.111
25 | ATGCAATC | 0.208

Row | Sequence | PBM E-score
26 | ATGGACTA | -0.0656
27 | CGTATGAA | 0.319
28 | CTTCTTTA | 0.106
29 | CACACGAA | 0.161
30 | AAACCCGC | 0.00185
31 | CACCTTGG | -0.2
32 | ACGTGGGC | 0.049
33 | GCAGGCTA | -0.377
34 | CTGCCGGA | -0.089
35 | ATTTCCGG | 0.00232
36 | GTGTGGCA | 0.0683
37 | ATCTTCAG | 0.13
38 | AAATTGGT | 0.186
39 | AACCGAAT | 0.112
40 | ATCTGTCA | 0.121
41 | CTCGATTC | -0.0536
42 | GCAAGTAA | 0.0157
43 | ATGGCTTC | -0.0679
44 | ACTGAGAC | -0.0531
45 | ATTACGCC | 0.254
46 | AAATATCC | 0.101
47 | ACGCCGAC | 0.0423
48 | CGGGTGGA | -0.178
49 | TCGGTTAA | 0.0115
50 | CTGCGAGC | -0.0539

Row | Sequence | PBM E-score
51 | CTGCCGGC | -0.276
52 | GTGGAACA | 0.033
53 | AACTACTT | 0.0798
54 | CAAGCGGG | -0.239
55 | GGGGTCAC | -0.214
56 | AGAAATTA | 0.272
57 | AGAGGAGA | -0.248
58 | CAACGAAC | 0.0576
59 | CACAGGTA | 0.0773
60 | CTACCTAC | -0.0461
61 | TAGATTGA | 0.213
62 | CCATATCG | -0.0338
63 | ACTAAGCC | -0.0814
64 | ACCCTTCA | -0.156
65 | CCTTATAG | -0.0102
66 | TCTCCCCA | -0.262
67 | ATGCCGGA | -0.121
68 | GGCCGGTA | 0.00332
69 | TAAGGGTA | -0.07
70 | CAATAACC | 0.136
71 | GAAACAGA | 0.169
72 | TACCCACA | -0.0986
73 | GGAGCAGA | -0.114
74 | AGAAGGTC | -0.089
75 | GAGGTGGA | -0.204

Row | Sequence | PBM E-score
76 | GCCGAGGA | -0.0119
77 | ACCGAAGG | -0.0936
78 | AGAAGTAT | 0.229
79 | CGCGTAGA | -0.202
80 | AGCACGGG | -0.201
81 | CATACCTA | -0.0413
82 | CAATAGAG | 0.0512
83 | ACGTGCCG | 0.112
84 | TCGTGACA | 0.189
85 | CCCCCGGG | -0.278
86 | CTGGAAAA | 0.121
87 | CTGCGGAC | -0.114
88 | CTAGTTAA | 0.0732
89 | AACTCGGC | 0.0742
90 | GGGTCCAC | -0.353
91 | ACTGCAGA | -0.0111
92 | ACCACAGC | -0.202
93 | CCTCGTCG | -0.0925
94 | CAGGGGTC | -0.25
95 | TGGAGCCA | -0.23
96 | AGATAGGC | -0.0122
97 | TACTAAGA | 0.0381
98 | AAGACTGG | -0.0781
99 | CGACAGAG | -0.315
100 | CGAGTCCG | -0.126

Row | Sequence | PBM E-score
101 | ATGATTCC | 0.152
102 | GAGTCGAA | 0.0113
103 | GGCGCGTA | -0.0745
104 | GATATTCC | 0.121
105 | CCCCCCTA | -0.346
106 | CGCATATA | 0.0594
107 | TATGCACA | -0.0713
108 | ACTTTACC | 0.0757
109 | TGGGATAA | 0.00606
110 | TCCTAGGA | -0.186
111 | CCTGATAG | -0.255
112 | ATCGGTCC | -0.253
113 | AGAGCTCG | -0.189
114 | GTCTCGGA | -0.144
115 | AGGCTTGC | -0.27
116 | CTTCAGGA | 0.0286
117 | AGTCAAAA | 0.135
118 | CCAGCATA | 0.0134
119 | ACACTTCA | -0.0137
120 | ACCGCCAG | -0.0151
121 | AAGTGACG | 0.45
122 | GAAAGTAA | 0.0654
123 | ACATCGGT | -0.184
124 | AAGAGCAA | -0.307
125 | CCCATAGA | -0.319

Row | Sequence | PBM E-score
126 | CGCTAAAA | 0.00907
127 | GTGCGCAC | 0.0822
128 | AATGACAT | 0.422
129 | TAAAGTAA | 0.172
130 | ACCTCAAG | -0.113
131 | CATTGAAC | 0.0189
132 | CTTGACCC | -0.183
133 | AGATCAGG | -0.196
134 | GTTCTATA | 0.0397
135 | CTTCATGC | -0.113
136 | AGCGTCAC | 0.332
137 | GGTTTGGA | 0.042
138 | CATATTAA | 0.234
139 | ACAGCCGG | -0.00077
140 | ACCAAGCA | -0.00668
141 | AGTTATGC | 0.045
142 | ACCGCCTA | -0.115
143 | ACAGCACC | -0.0342
144 | CCATTTTC | 0.2
145 | AAGCTCGA | -0.00705
146 | ACTGTTAC | 0.0792
147 | CAGTGAAA | 0.15
148 | ATGTCTGA | 0.0205
149 | ATGTCGTG | 0.0262
150 | AGTTATAA | 0.137

Row | Sequence | PBM E-score
151 | CTAATTCA | 0.0754
152 | CGCATGTA | -0.0587
153 | CGTACAAG | 0.0819
154 | AGGAGAAC | -0.157
155 | CGTTGTAC | 0.0365
156 | ATGGAGTA | -0.0489
157 | ATCCAGCA | -0.0228
158 | CCGCATAC | 0.103
159 | GGTCAGCA | -0.0601
160 | GCGTATAC | 0.104
161 | CAACGTCG | 0.0638
162 | GACGCGGA | 0.0322
163 | ATGTGCTC | -0.0603
164 | ATCCCATG | -0.0123
165 | ATACACTC | 0.151
166 | CTCAAGGC | -0.122
167 | GTGAGGGA | -0.156
168 | TAAGCACA | 0.2
169 | GTCCTCAA | 0.00181
170 | AATTCTGA | 0.173
171 | CGGGTCCC | -0.401
172 | ATTCAAGA | -0.0345
